Measured values taken from PubChem BioAssay AID493208 (National Center for Advancing Translational Sciences (NCATS), 2011).
The whole screen tested about 44,000 compounds, of which about 340 (0.77%) were called active. Inconclusive results (about 5%) are left out. The call rests on the fitted dose curve; in most records, active means well fitted inhibition curve with a large enough effect; inconclusive means small, poorly fitted or top-dose-only effect; inactive means flat fitted curve, though single readings scatter. The list shows a part of the results.

Assay: Acumen qHTS Assay for Inhibitors of the mTORC1 Signaling Pathway in MEF (Tsc2-/-, p53-/-) Cells: Sytravon; further: nearly all actives have a fitted effect of over 50% in size;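 on activity change, negative = inhibition: plate controls were DMSO for no effect and rapamycin for full effect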
Settings: phospho-rpS6 immunofluorescence/PI, 24 h; series mostly up to 38.3 µM; activity change, negative = inhibition: at the top concentration
How it was run: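 Plate MEFs (Tsc2-/-, p53-/-, empty vector) in DMEM/10% FBS; after 24 h add compound, incubate 24 h at 37 degree Celsius; fix in PFA/TX-100, block, stain phospho-rpS6 and 10 uM PI; scan at 488 nm; report % positive cells.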
Potency means the concentration at half of the fitted maximal effect.

SMILES | activity change, negative = inhibition | Potency
Cc1ccc(NC(=O)CN2C(=O)C(c3ccc(C(C)(C)C)cc3)=NC2(C)C)cc1 | inactive: 0.893% | 
O=[N+]([O-])c1cc(-c2nc(-c3ccccc3)no2)ccc1NCc1cccnc1 | inactive: 2.5% | 
COc1ccc(N2CCN(C(=O)COc3ccccc3C#N)CC2)cc1 | inactive: -0.935% | 
Cc1cc(C)cc(-n2c(SCC(=O)Nc3cccc(F)c3)nc3c([nH]c4ccccc43)c2=O)c1 | inactive: -1.49% | 
COc1ccc(OC)c(NC(=O)Cn2c(=O)n(Cc3ccco3)c(=O)c3cc(OC)c(OC)cc32)c1 | inactive: -0.761% | 
Cc1ccc(C)c(NC(=O)C(Cc2ccccc2)n2cccc2)c1 (configuration not stated) | inactive: -4.02% | 
Cc1ccc(C(=O)Nc2ccc(-c3nc4ccccc4o3)cc2)cc1Cl | inactive: 5.69% | 
Brc1ccc(Nc2c3c(nc4nncn24)CCC3)cc1 |  | active: 5.85 µM
Cc1ccc(NC(=O)C2CCC(CNS(=O)(=O)c3ccc4c(c3)CCCC(=O)N4)CC2)cc1F (configuration not stated) | inactive: -2.83% | 
COCCNc1nc2c(c(=O)n(Cc3cccc(Cl)c3)c(=O)n2C)n1C | inactive: -3.89% | 
COc1ccc2c(c1)c1c(c(=O)n(Cc3ccccc3)c(=O)n1Cc1ccccc1Cl)n2C | inactive: -0.576% | 
CCc1ccc(NC(=O)C2=C(C)C(=O)OC23CCCCC3)cc1 | inactive: -3.79% | 
COc1ccc(OCC(=O)Nc2c(C(=O)N3CCN(c4ccccc4)CC3)oc3ccccc23)cc1 | inactive: 3.28% | 
CCOC(=O)c1c(-c2ccc(OC)c(OC)c2)csc1NC(=O)c1ccc(C)cc1 | inactive: -3.82% | 
CCCCN1CCCc2cc(CN(CCCN3CCOCC3)C(=O)Nc3ccc(CC)cc3)ccc21 | inactive: -0.356% | 
O=C(NCc1ccc(F)cc1)c1cc2cccc3c2n1CCS3 | inactive: 3.49% | 
O=C(O)c1cccc(NC(=O)c2cc3cc(Br)cc(Br)c3oc2=O)c1 | inactive: 5.29% | 
COc1ccc(S(=O)(=O)N(CC(=O)NCCSc2ccccc2)c2ccc(C)cc2)cc1 | inactive: -23.2% | 
CC(=O)c1cccc(NC(=O)Cc2ccc(NC(=O)N3CCCCc4ccccc43)cc2)c1 | inactive: -1.46% | 
COC(=O)c1ccc(NC(=O)C(=O)NCC(c2cccnc2)N2CCN(c3ccccc3)CC2)cc1 (configuration not stated) | inactive: 1.23% | 
CCOC(=O)c1cc(-c2ccccc2)n(CCC(=O)NCCc2cccc(C)c2)c1C | inactive: -7.43% | 
COc1ccc(S(=O)(=O)NCCc2sc3nc(-c4ccc(C)cc4)nn3c2C)cc1C | inactive: -2.75% | 
CCC(=O)N1CCc2cc(S(=O)(=O)CCC(=O)N3CCN(c4ccccc4F)CC3)ccc21 | inactive: 0.163% | 
CN1CCN(C(CNC(=O)C(=O)Nc2ccc(F)cc2)c2cccnc2)CC1 (configuration not stated) | inactive: -4.73% | 
Cc1cc2oc(C(=O)Nc3nc(-c4ccccc4)ns3)c(C)c2cc1Cl | inactive: -6.94% | 

SMILES | activity change, negative = inhibition | Potency
Cc1ccc(NC(=O)CN2C(=O)CCc3cc(S(=O)(=O)N4CCOCC4)ccc32)c(C)c1 | inactive: 1.22% | 
CCOc1ccc(CNC(=O)c2sc3nc(C)cc(C)c3c2-n2cccc2)cc1 | inactive: -2.36% | 
CC(=O)c1ccc(NS(=O)(=O)c2ccc3[nH]c4c(c3c2)CCCCCC4)cc1 | inactive: -10.2% | 
CCC(CC)C(=O)N1CCc2cc(OC)c(OC)cc2C1COc1ccccc1OC (configuration not stated) | inactive: 6.6% | 
Cc1ccc(C)c(Cn2nnc(C(=O)NCc3ccccc3)c2N)c1 | inactive: -2.04% | 
CCOc1ccc(NC(=O)CSc2nnc(NC(=O)Nc3ccccc3)s2)cc1 | inactive: 1.63% | 
Cc1nc2cc(-c3cccc(F)c3)nn2c(C)c1CCC(=O)NC1CCCCC1 | inactive: -11.4% | 
CCOc1ccc(-c2nonc2NC(=O)COc2ccc(C)c(C)c2)cc1OCC | inactive: -1.68% | 
COc1ccc(-c2nn(C)c3sc(C(=O)N4CCN(c5cc(Cl)ccc5C)CC4)cc23)cc1OC | inactive: -3.26% | 
O=C(c1ccc2c(c1)N(Cc1cccc(Cl)c1)C(=O)c1ccccc1S2(=O)=O)N1CCN(c2cccc(C(F)(F)F)c2)CC1 | inactive: -0.126% | 
CCOc1ccc(-c2cnc(NCc3cccc(Cl)c3)n2C)cc1 | inactive: -2.38% | 
COc1ccc(C(=O)CCC(=O)Nc2cccc(C(C)=O)c2)cc1 | inactive: -0.629% | 
COc1ccc(CCNC(=O)Cn2c(=O)c3cccn3c3ccc(F)cc32)cc1OC | inactive: 10.6% | 
Cc1ccccc1-n1nc(CO)c(C(=O)NCCc2ccccc2)n1 | inactive: 1.72% | 
COc1cccc(NC(=O)C(=O)NCC(c2cccnc2)N2CCN(c3ccccc3)CC2)c1 (configuration not stated) | inactive: 0% | 
COc1ccc(OC)c(CNc2ncnc3onc(-c4ccc(Cl)cc4)c23)c1 | inactive: -27.9% | 
CCOC(=O)CSc1nc2ccc(NC(=O)COc3ccccc3)cc2s1 | inactive: -7.39% | 
Cc1cccc(CSc2cn(CC(=O)N3CCCCCC3)c3ccccc23)c1 | inactive: -24.9% | 
CCCOc1ccc(-c2cccc(NS(=O)(=O)c3cc(OC)ccc3OC)c2)nn1 | inactive: -2.02% | 
O=C(NCc1ccc(Cl)cc1)c1cnc2sc(N3CCCCCC3)nn2c1=O | inactive: 0.721% | 
CCN(CC)c1ccc(NC(=O)c2cnn3c(C(F)F)cc(-c4ccccc4)nc23)cc1 | inactive: 15.4% | 
O=C(CCC(=O)N1Cc2ccccc2Oc2ncccc21)NCc1ccccc1Cl | inactive: 6.33% | 
COc1ccc(C(c2c(O)cc(C)n(Cc3ccco3)c2=O)N2CCN(c3ccccc3)CC2)cc1 (configuration not stated) | inactive: -0.873% | 
CCOC(=O)c1c(NC(=O)CSc2cn(CCNC(=O)c3ccc(OCC)cc3)c3ccccc23)sc2c1CCCC2 | inactive: 3.66% | 
COc1cccc(N2C(=O)C(CC(=O)Nc3cccc(F)c3)N(C(C)C)C2=O)c1 (configuration not stated) | inactive: -5.03% | 

SMILES | activity change, negative = inhibition | Potency
Cc1cccc(CC(=O)NC2CC(=O)N(c3cccc(F)c3)C2)c1 (configuration not stated) | inactive: -15.4% | 
Cc1cc(N2CCCCC2)nc2ccc(NC(=O)c3ccc(F)cc3)cc12 | inactive: -0.398% | 
COc1ccc(OC)c(NC(=O)C2CCN(S(=O)(=O)c3ccc(C)cc3)CC2)c1 | inactive: -2.35% | 
COCCNC(=O)CSc1nc(-c2ccc(F)cc2)[nH]c1-c1ccc(Cl)cc1 | inactive: 0.895% | 
CC(CNC(=O)Cn1ncc2c3ccccc3n(Cc3cccc(Cl)c3)c2c1=O)c1ccccc1 (configuration not stated) | inactive: 1.18% | 
O=C(COc1ccccc1)Nc1ccc(OCc2cc(=O)n3ccsc3n2)cc1 | inactive: -0.202% | 
CCOc1ccc(C(=O)Nc2ccc(S(=O)(=O)N(Cc3ccccc3)c3ccccc3)cc2)cc1 | inactive: -6.96% | 
COc1ccc(OC)c(C2CC(=O)N(c3cccc(C)c3)C3=C2C(=O)OC3)c1 (configuration not stated) | inactive: -10.8% | 
CN(C(=O)CSc1nc2ncccc2o1)c1ccc(F)cc1 | inactive: -20.4% | 
CC(C)CCNC(=O)C(=O)Nc1c2c(nn1-c1ccccc1)CS(=O)(=O)C2 | inactive: -2.97% | 
O=C(CSc1nc2cc3ccccc3cc2[nH]1)Nc1cccc(C(F)(F)F)c1 | inactive: -6.79% | 
CNS(=O)(=O)c1cn(CC(=O)Nc2ccc(OC)c(Cl)c2)cc1S(=O)(=O)NC | inactive: -4.71% | 
COc1ccccc1N1CCN(S(=O)(=O)c2ccc(-c3cc(C(F)(F)F)on3)s2)CC1 | inactive: -9.44% | 
CCOC(=O)c1cc(OC(=O)c2cccc(C)c2)n(-c2ccccc2)n1 | inactive: -14% | 
COCc1cc(C)nc2sc3c(c12)NC(c1ccc(NC(C)=O)cc1)N(c1ccc(C)cc1)C3=O (configuration not stated) | inactive: -0.701% | 
COc1cccc(CNc2ncnc3onc(-c4ccc(F)cc4)c23)c1 | inactive: -7.07% | 
O=c1c2ccccc2n(Cc2cccc(Cl)c2)c(=O)n1CCc1ccccc1 | inactive: 2.07% | 
COc1ccc(-c2cc(C(C)=O)c(C)n2CCC(=O)Nc2cc(C)ccc2OC)cc1 | inactive: -7.77% | 
CC(=O)NCCc1nc2ccccc2n1CCCCOc1ccc(Cl)cc1 | inactive: -7.12% | 
COc1cccc2cc(-c3nc4sc(C(=O)Nc5ccc(F)cc5F)c(C)c4c(=O)[nH]3)c(=O)oc12 | inactive: 6.72% | 
Cc1ccc(C)c(N2CCN(c3ncnc4onc(C)c34)CC2)c1 | inactive: -15.3% | 
COCc1cc(C)nc2sc3c(=O)n(-c4cc(C)ccc4C)nnc3c12 | inactive: 3.61% | 
CCOC(=O)c1ccccc1NC(=O)N1CCN2CCCCC2C1 (configuration not stated) | inactive: -0.449% | 
CC(=O)Nc1nonc1-c1nnc(SCC(=O)Nc2cc(C)ccc2C)n1-c1ccccc1 | inactive: -23.3% | 
COc1ccccc1CCNC(=O)Cc1c(C)c2ccc(O)cc2oc1=O | inactive: 2.58% | 

SMILES | activity change, negative = inhibition | Potency
CCOc1ccc(Nc2oc(/C=C/c3ccc(F)cc3)nc2C#N)cc1 | inactive: -2.31% | 
COc1ccc(CNc2nc3c(S(=O)(=O)c4ccccc4)nnn3c3ccc(Cl)cc23)cc1 | inactive: -9.47% | 
Cc1ccc(NC(=O)C(=O)NCC(c2cccnc2)N2CCN(C)CC2)cc1C (configuration not stated) | inactive: 7.2% | 
COc1ccc(NC(=O)c2oc3c(c2C)-c2nn(Cc4c(F)cccc4Cl)cc2CC3)c(OC)c1 | inactive: -16.2% | 
Cc1ccc(OCC(=O)Nc2ccc(C(=O)OCc3cc(=O)n4nc(C5CC5)sc4n3)cc2)cc1 | inactive: 0% | 
CCc1ccc(NC(=O)c2cc3ccccn3n2)cc1 | inactive: -12.1% | 
Cc1cc(C)c2c(CC(=O)Nc3nnc(C(C)C)s3)coc2c1 | inactive: -4.31% | 
Fc1ccccc1CNCCCSc1nnnn1-c1ccccc1 | inactive: -19.2% | 
O=C(CSc1nc(=O)[nH]c2c1CCCC2)Nc1cc(C(F)(F)F)ccc1Cl | inactive: -0.467% | 
COc1ccc(-c2nnc(Nc3ccc(OCC(N)=O)cc3)c3ccccc23)cc1 | inactive: 11.1% | 
Cc1cc(C)n(-c2nc3ccccc3nc2Nc2cccc(C(F)(F)F)c2)n1 | inactive: 3.58% | 
COc1ccc(C2C(C(=O)Nc3ccccc3)=C(C)Nc3nc(-c4ccccc4)nn32)cc1OC (configuration not stated) | inactive: -15.7% | 
COc1ccc(OC)c(-c2nc(Nc3ccccc3C)sc2CC(=O)O)c1 | inactive: -7.02% | 
CCOC(=O)c1ccccc1NC(=O)CSc1ccc(-c2sc(-c3ccccc3)nc2C)nn1 | inactive: 2.96% | 
O=C1CCSC2(C(=O)N(Cc3ccc(F)cc3)c3ccccc32)N1c1ccccc1 (configuration not stated) | inactive: 0% | 
CC(C)CCNC(=O)CN1C(=O)COc2ccc(S(=O)(=O)N3CCOCC3)cc21 | inactive: -8.06% | 
COc1ccc(NC(=O)C(=O)NCCc2ccccc2)cc1OC | inactive: -10.4% | 
CC(C)c1ccc(NC(=O)C2CCCN(S(=O)(=O)c3ccc(Br)s3)C2)cc1 (configuration not stated) | inactive: -3.28% | 
COc1cccc(C(=O)Nc2ccccc2C(=O)OCc2cc(=O)n3nc(C)sc3n2)c1 | inactive: 0% | 
CCOC(=O)c1cccc(NC(=O)c2cc3c(Cl)nc4ccc(C)cc4c3s2)c1 | inactive: -0.962% | 
COc1ccc(-n2cc(-c3ccccc3)c3c(SC(C)C(C)=O)ncnc32)cc1 (configuration not stated) | inactive: 5.1% | 
CCc1ccc(NS(=O)(=O)c2ccc3[nH]cc(C(=O)NC4CCCC4)c(=O)c3c2)cc1 | inactive: 0.852% | 
